Results: publication PMC4336329 (PLoS ONE, 2015)
Among all 310,000 compounds or so, about 14,000 (4.5%) showed an effect of 50% or more. The effect is printed as a negative number. The list shows a part of the results.

Target: human ether-à-go-go-related gene (hERG) potassium channel (human, UniProt Q12809)
Assay: primary screen, population patch clamp on CHO cells stably expressing hERG
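Note: peak tail current of the secondary pulse compared with the same well before compound.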

Sequence of human ether-à-go-go-related gene (hERG) potassium channel (Q12809 whole entry, looked up): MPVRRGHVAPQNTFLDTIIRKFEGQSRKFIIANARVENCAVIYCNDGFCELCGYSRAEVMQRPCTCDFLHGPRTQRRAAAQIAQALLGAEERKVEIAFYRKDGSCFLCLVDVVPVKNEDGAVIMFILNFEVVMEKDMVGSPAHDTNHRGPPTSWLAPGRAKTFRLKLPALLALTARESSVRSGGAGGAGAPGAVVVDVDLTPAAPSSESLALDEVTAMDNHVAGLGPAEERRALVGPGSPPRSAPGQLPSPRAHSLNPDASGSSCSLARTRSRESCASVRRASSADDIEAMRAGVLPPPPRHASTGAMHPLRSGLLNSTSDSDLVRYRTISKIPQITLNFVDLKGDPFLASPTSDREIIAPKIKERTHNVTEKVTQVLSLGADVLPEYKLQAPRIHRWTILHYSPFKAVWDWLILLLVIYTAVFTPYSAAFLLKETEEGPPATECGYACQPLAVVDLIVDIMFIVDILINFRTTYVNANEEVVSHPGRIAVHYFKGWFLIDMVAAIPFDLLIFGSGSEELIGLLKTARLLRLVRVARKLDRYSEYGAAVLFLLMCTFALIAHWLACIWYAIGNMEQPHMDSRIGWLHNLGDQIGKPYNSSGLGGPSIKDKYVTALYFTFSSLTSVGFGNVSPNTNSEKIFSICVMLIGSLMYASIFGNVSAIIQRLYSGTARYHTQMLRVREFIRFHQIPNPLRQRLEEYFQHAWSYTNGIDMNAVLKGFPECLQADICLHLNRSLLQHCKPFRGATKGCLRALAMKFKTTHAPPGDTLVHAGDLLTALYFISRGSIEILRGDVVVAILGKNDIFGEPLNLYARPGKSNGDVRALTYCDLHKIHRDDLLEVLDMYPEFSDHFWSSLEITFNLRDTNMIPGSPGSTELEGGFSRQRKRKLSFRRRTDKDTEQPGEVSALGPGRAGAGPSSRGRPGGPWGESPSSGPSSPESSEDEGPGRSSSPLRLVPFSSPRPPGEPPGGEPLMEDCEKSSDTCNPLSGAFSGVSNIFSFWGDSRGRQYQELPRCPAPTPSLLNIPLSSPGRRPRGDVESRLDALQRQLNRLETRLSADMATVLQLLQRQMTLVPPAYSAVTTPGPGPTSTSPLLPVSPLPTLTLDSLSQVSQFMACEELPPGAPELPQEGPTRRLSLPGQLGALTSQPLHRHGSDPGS

Structure (SMILES) | hERG current change (%, negative = inhibition) at 10uM [%]
CCN(C(=O)COC(=O)CCC(=O)c1ccccc1)c1c(N)n(Cc2ccccc2)c(=O)[nH]c1=O | 15.6
Cc1nc(C)c(-c2ccc(SCC(=O)Nc3cccc(Cl)c3C)nn2)s1 | -16.5
CCCN(CC(=O)Nc1ccccc1C)C(=O)COc1c(Cl)cccc1Cl | -15.8
Cn1c(=O)[nH]c(=O)c2c1nc(N)n2Cc1ccccc1 | -0.871
C=CCN=c1scc(-c2ccc(F)cc2)n1/N=C/c1ccccn1 | 9.2
CC(=O)C1=C(O)CCCC1=NCc1nc2ccccc2[nH]1 | 13.9
COc1ccc(OC)c(NC(=O)C2CCCCC2C(=O)O)c1 (stereo not drawn) | -34
O=C(COc1ccc2ccccc2c1)NNC(=O)Nc1ccc(F)cc1F | 13.8
COc1cccc(NC(=O)CSc2nnc3cc(C)nc(N)n23)c1 | 7.55
COc1ccc(S(=O)(=O)N(C)CC(=O)NCCN2CCOCC2)cc1Cl | 6.98
O=C(NC1CCc2ccccc21)c1cc(COc2ccc(F)cc2F)on1 (stereo not drawn) | 16.5
Cc1cccc(NC(=S)NCCN2CCOCC2)c1 | 5.41
COc1ccccc1NC(=O)N1CCN(c2ccc(F)cc2)CC1 | -18.7
Cc1ccc(C(=O)NC(=S)Nc2ccccc2N2CCCC2)cc1[N+](=O)[O-] | 8.94
CCCc1cc(=O)oc2cc(C)cc(O)c12 | -6.43
CN(C)c1nc2c(c(=O)n(C)c(=O)n2C)n1Cc1ccccc1 | -7.47
Cc1cccn(Cc2c(F)cccc2Cl)c1=O | 17.1
O=C1CC(c2ccccc2)CC(O)=C1C=NC1CCCCC1 (stereo not drawn) | -10.2
COc1cc(NC(C)CCCN)c2ncccc2c1.O=P(O)(O)O (stereo not drawn) | 2.62

Structure (SMILES) | hERG current change (%, negative = inhibition) at 10uM [%]
Clc1ccc(CSc2nnc(-c3cccnc3)o2)cc1 | -14
Cn1c(SCn2nnc3ccccc3c2=O)nc2ccccc2c1=O | 20.8
O=C(N/N=C/c1oc(O)c2ccccc12)c1ccccc1O | 8.28
Cc1cc(C)c(S(=O)(=O)Nc2cccc3nsnc23)c(C)c1 | -3.18
O=C(Nc1ccccc1Cc1ccccc1)c1ccccc1NS(=O)(=O)c1ccc(Cl)s1 | 9.34
O=C(CSc1nnc(CNC(=O)c2cccs2)o1)NC1CCCC1 | 0.995
COc1c(O)cc2oc(-c3ccc(O)cc3)cc(=O)c2c1O | -5.54
Cc1nn(-c2ccccc2)c(C)c1C(=O)OCC(=O)NC12CC3CC(CC(C3)C1)C2 | 4.48
O=C(CN1CCN(c2ccccc2F)CC1)c1ccc(O)c(O)c1 | -70.7
Cc1cccnc1NC(=O)c1ccc2c(c1)OCCO2 | -3.42
O=C(COC(=O)/C=C/c1ccco1)Nc1cccc([N+](=O)[O-])c1 | 23.4
O=C(COC(=O)c1c2c(nc3ccccc13)CCN(Cc1ccccc1)C2)Nc1c(F)cccc1F | -27.4
CCCN1C(=O)N(c2cccc(C)c2)C(C)(O)CC1(C)C (stereo not drawn) | -5.27
Cc1nnc(SCC(=O)NC2CC2)n1CC1CCCO1 (stereo not drawn) | 40.2
CC(=O)N(Cc1cc(=O)[nH]c2ccccc12)c1ccc(C)cc1C | 8.06
CCN(CC)CC(=O)Nc1ccc(Oc2ccc(NC(=O)CN(CC)CC)cc2)cc1 | 17.1
Cn1cnnc1SCc1ccc(C(=O)O)cc1 | 6.73
O=C(COC(=O)CN1C(=O)C2CCCCC2C1=O)Nc1c(Cl)cccc1Cl (stereo not drawn) | -22.6
CCOC(=O)Cc1nnc(NC(=O)C2CCCCC2)s1 | 12.3

Structure (SMILES) | hERG current change (%, negative = inhibition) at 10uM [%]
CCN(C(=O)c1cccnc1SC)C12CC3CC(CC(C3)C1)C2 | 12.2
CCOCCCn1c(=S)[nH]c2cc(C(=O)NCCCN(CC)CC)ccc2c1=O | 2.06
O=S(=O)(c1cccc(Cl)c1)N1CCSc2ccccc21 | -14.9
CCn1cc(C(=O)N2CCn3c(nc4ccccc43)C2)c(=O)c2ccc(C)nc21 | -12.4
CCOC(=O)c1cnc2c(CC)cccc2c1NCCCN1CCOCC1 | -35.6
CCNC(=O)[C@H]1O[C@@H](n2cnc3c(N)nc(NCCc4ccc(CCC(=O)O)cc4)nc32)[C@H](O)[C@@H]1O.Cl | 12.2
O=C(CCNC(=O)c1ccccc1Cl)Nc1cc(C(F)(F)F)ccc1N1CCCC1 | 7.45
Cc1c(C(=O)NCCc2ccccc2)oc2ccc(S(=O)(=O)N3CCC4(CC3)OCCO4)cc12 | -26
O=S(=O)(Nc1ccc2ccccc2n1)c1ccccc1 | 22.6
CCC(=O)n1nc(NCc2ccccc2OC)nc1NCc1ccccc1OC | 6.99
CCN(CC)c1ccc(C=Nc2ccc(C#N)cc2)c(O)c1 | -2.03
O=C(CCc1nc2ccccc2c(=O)[nH]1)NCc1cccc(Cl)c1 | -2.59
COc1cc(CCCN2C(=S)NC[C@H]2Cc2ccc(O)cc2)cc(OC)c1OC | -16.4
O=C(CCn1cnc2ccccc2c1=O)Nc1ccc(Cl)c(Cl)c1 | -4.04
CCc1nnc(NC(=O)C2CCN(C(=O)c3ccco3)CC2)s1 | -0.31
COc1ccc(N(C)S(=O)(=O)c2cccc(C(=O)N(C)Cc3ccc(C)o3)c2)cc1 | -30.3
CCC(CC)c1nnc(NC(=O)COc2ccc3c(C)cc(=O)oc3c2)s1 | -1.11
CC(=O)c1cc2c(cc1NC(=O)Nc1cccc(Cl)c1)OCCO2 | -11.7
O=C(Nc1ccncc1)c1ccc2c(c1)C(=O)N(C1CCCCC1)C2=O | 7.44
